Source: patent US20220267422A1

Target: doppel (Prnd) recombinant protein immobilized on the SPR sensor chip
Assay: SPR, BIAcore T100, recombinant protein immobilized on chip

Kd: 53.8 nM
B1: Human monoclonal antibody 3D5 (antibody, human IgG1, kappa, V domains shown)
VH: EVQLVESGGGLVQPGGSLRLSCAASGFTFSDYAMSWVRQAPGKGLEWVSRISSSGSSKYYADSVKGRFTISRDNSKNTLYLQMNSLRAEDTAVYYCAKWGSYGYGLVYYFDVWGQGTLVTVSS
VL: [sequence of about 100 residues not given]
